Data published in publication PMC9911399, “Two distinct binding modes provide the RNA-binding protein RbFox with extraordinary sequence specificity”.
Numbering of substitutions follows the chain as printed; changes in the protein carry UniProt numbers. The list shows a part of the results.

T1: RBFOX1 RRM (Homo sapiens, UniProt Q9NWB1 109-208)
T1 sequence: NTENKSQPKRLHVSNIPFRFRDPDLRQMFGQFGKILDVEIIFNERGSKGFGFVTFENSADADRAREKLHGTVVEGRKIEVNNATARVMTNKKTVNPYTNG

B1: UGUAAUU (DNA:RNA)
RNA: GGGAGACCGGAAUUCAGAUUGUCCUGUAAUUUUAAAUCCCGUCGUAGCCACCA
DNA 1: CAATCTGAATTCCGGTCTCCC
DNA 2: TGGTGGCTACGACGGGATT
B2: ACGCAAA (DNA:RNA)
RNA: B1 RNA with U25A, G26C, U27G, A28C, U30A, U31A
DNA 1: CAATCTGAATTCCGGTCTCCC
DNA 2: TGGTGGCTACGACGGGATT
B3: ACUCAGA (DNA:RNA)
RNA: B1 RNA with U25A, G26C, A28C, U30G, U31A
DNA 1: CAATCTGAATTCCGGTCTCCC
DNA 2: TGGTGGCTACGACGGGATT
B4: UUGUAGU (DNA:RNA)
RNA: B1 RNA with G26U, U27G, A28U, U30G
DNA 1: CAATCTGAATTCCGGTCTCCC
DNA 2: TGGTGGCTACGACGGGATT
B5: GUCUCCA (DNA:RNA)
RNA: GGGAGACCGGAAUUCAGAUUGUCCGUCUCCAUUAAAUCCCGUCGUAGCCACCA
DNA 1: CAATCTGAATTCCGGTCTCCC
DNA 2: TGGTGGCTACGACGGGATT
B6: GGCAGUG (DNA:RNA)
RNA: B1 RNA with U25G, U27C, A29G, U31G
DNA 1: CAATCTGAATTCCGGTCTCCC
DNA 2: TGGTGGCTACGACGGGATT
B7: GGGAAAU (DNA:RNA)
RNA: B1 RNA with U25G, U27G, U30A
DNA 1: CAATCTGAATTCCGGTCTCCC
DNA 2: TGGTGGCTACGACGGGATT
B8: AGUGAUG (DNA:RNA)
RNA: B1 RNA with U25A, A28G, U31G
DNA 1: CAATCTGAATTCCGGTCTCCC
DNA 2: TGGTGGCTACGACGGGATT
B9: CGUCGAC (DNA:RNA)
RNA: B1 RNA with U25C, A28C, A29G, U30A, U31C
DNA 1: CAATCTGAATTCCGGTCTCCC
DNA 2: TGGTGGCTACGACGGGATT
B10: AUGAUCC (DNA:RNA)
RNA: B5 RNA with G25A, C27G, U28A, C29U, A31C
DNA 1: CAATCTGAATTCCGGTCTCCC
DNA 2: TGGTGGCTACGACGGGATT
B11: CACAAAG (DNA:RNA)
RNA: B1 RNA with U25C, G26A, U27C, U30A, U31G
DNA 1: CAATCTGAATTCCGGTCTCCC
DNA 2: TGGTGGCTACGACGGGATT
B12: UGGUGUA (DNA:RNA)
RNA: B1 RNA with U27G, A28U, A29G, U31A
DNA 1: CAATCTGAATTCCGGTCTCCC
DNA 2: TGGTGGCTACGACGGGATT
B13: GCAGAGG (DNA:RNA)
RNA: B5 RNA with U26C, C27A, U28G, C29A, C30G, A31G
DNA 1: CAATCTGAATTCCGGTCTCCC
DNA 2: TGGTGGCTACGACGGGATT
B14: AAUUGUG (DNA:RNA)
RNA: B1 RNA with U25A, G26A, A28U, A29G, U31G
DNA 1: CAATCTGAATTCCGGTCTCCC
DNA 2: TGGTGGCTACGACGGGATT
B15: UCGCUAC (DNA:RNA)
RNA: B1 RNA with G26C, U27G, A28C, A29U, U30A, U31C
DNA 1: CAATCTGAATTCCGGTCTCCC
DNA 2: TGGTGGCTACGACGGGATT
B16: UAGCAAA (DNA:RNA)
RNA: B1 RNA with G26A, U27G, A28C, U30A, U31A
DNA 1: CAATCTGAATTCCGGTCTCCC
DNA 2: TGGTGGCTACGACGGGATT
B17: UACAAAA (DNA:RNA)
RNA: B1 RNA with G26A, U27C, U30A, U31A
DNA 1: CAATCTGAATTCCGGTCTCCC
DNA 2: TGGTGGCTACGACGGGATT
B18: CAGGGUU (DNA:RNA)
RNA: B1 RNA with U25C, G26A, U27G, A28G, A29G
DNA 1: CAATCTGAATTCCGGTCTCCC
DNA 2: TGGTGGCTACGACGGGATT
B19: CUGGAGA (DNA:RNA)
RNA: B5 RNA with G25C, C27G, U28G, C29A, C30G
DNA 1: CAATCTGAATTCCGGTCTCCC
DNA 2: TGGTGGCTACGACGGGATT
B20: UGAUGGG (DNA:RNA)
RNA: B1 RNA with U27A, A28U, A29G, U30G, U31G
DNA 1: CAATCTGAATTCCGGTCTCCC
DNA 2: TGGTGGCTACGACGGGATT
B21: UGCCACA (DNA:RNA)
RNA: B5 RNA with G25U, U26G, U28C, C29A
DNA 1: CAATCTGAATTCCGGTCTCCC
DNA 2: TGGTGGCTACGACGGGATT
B22: GCUAACG (DNA:RNA)
RNA: B1 RNA with U25G, G26C, U30C, U31G
DNA 1: CAATCTGAATTCCGGTCTCCC
DNA 2: TGGTGGCTACGACGGGATT
B23: GACAAAC (DNA:RNA)
RNA: B5 RNA with U26A, U28A, C29A, C30A, A31C
DNA 1: CAATCTGAATTCCGGTCTCCC
DNA 2: TGGTGGCTACGACGGGATT
B24: GCGGAGG (DNA:RNA)
RNA: B5 RNA with U26C, C27G, U28G, C29A, C30G, A31G
DNA 1: CAATCTGAATTCCGGTCTCCC
DNA 2: TGGTGGCTACGACGGGATT
B25: GGCGUUG (DNA:RNA)
RNA: B5 RNA with U26G, U28G, C29U, C30U, A31G
DNA 1: CAATCTGAATTCCGGTCTCCC
DNA 2: TGGTGGCTACGACGGGATT
B26: UACUGGC (DNA:RNA)
RNA: B5 RNA with G25U, U26A, C29G, C30G, A31C
DNA 1: CAATCTGAATTCCGGTCTCCC
DNA 2: TGGTGGCTACGACGGGATT
B27: UAGCAUA (DNA:RNA)
RNA: B1 RNA with G26A, U27G, A28C, U31A
DNA 1: CAATCTGAATTCCGGTCTCCC
DNA 2: TGGTGGCTACGACGGGATT
B28: CCCAUCG (DNA:RNA)
RNA: B5 RNA with G25C, U26C, U28A, C29U, A31G
DNA 1: CAATCTGAATTCCGGTCTCCC
DNA 2: TGGTGGCTACGACGGGATT
B29: UAUCAUU (DNA:RNA)
RNA: B1 RNA with G26A, A28C
DNA 1: CAATCTGAATTCCGGTCTCCC
DNA 2: TGGTGGCTACGACGGGATT
B30: UCCAUGG (DNA:RNA)
RNA: B1 RNA with G26C, U27C, A29U, U30G, U31G
DNA 1: CAATCTGAATTCCGGTCTCCC
DNA 2: TGGTGGCTACGACGGGATT
B31: UUGCCGA (DNA:RNA)
RNA: B5 RNA with G25U, C27G, U28C, C30G
DNA 1: CAATCTGAATTCCGGTCTCCC
DNA 2: TGGTGGCTACGACGGGATT

biological target: T1, RBFOX1 RRM; assay: EMSA; HiTS-Eq, 1 nM pool, 10 min; buffer printed only for the single-RNA assays: 10 mM Tris pH 7.5, 150 mM NaCl, 3.4 mM EDTA, 0.001% NP-40, 30 C; details: tags: His6 N-terminal (pET28a); label: 5' 32P
Summary of the method: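 Relative association constants, normalised to the cognate motif, were derived by comparing read counts of each RNA species with those of the control reaction. The RNA sequenced was the free fraction, separated by 8% native PAGE after a 10 min equilibration in 50 µL of 1 nM 5′-radiolabelled RNA (7 randomized nucleotides) with increasing concentrations of purified wild-type or mutant RbFox RRM.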

Binder	binding signal
B1	0.00803 KA relative to UGCAUGU
B2	0.0029 KA relative to UGCAUGU
B3	0.00734 KA relative to UGCAUGU
B4	0.0147 KA relative to UGCAUGU
B5	0.0117 KA relative to UGCAUGU
B6	0.0112 KA relative to UGCAUGU
B7	0.0288 KA relative to UGCAUGU
B8	0.0136 KA relative to UGCAUGU
B9	0.00831 KA relative to UGCAUGU
B10	0.00352 KA relative to UGCAUGU
B11	0.00192 KA relative to UGCAUGU
B12	0.0174 KA relative to UGCAUGU
B13	0.0159 KA relative to UGCAUGU
B14	0.014 KA relative to UGCAUGU
B15	0.00987 KA relative to UGCAUGU
B16	0.00538 KA relative to UGCAUGU

Binder	binding signal
B17	0.000785 KA relative to UGCAUGU
B18	0.0194 KA relative to UGCAUGU
B19	0.0188 KA relative to UGCAUGU
B20	0.00907 KA relative to UGCAUGU
B21	0.00354 KA relative to UGCAUGU
B22	0.0135 KA relative to UGCAUGU
B23	0.00233 KA relative to UGCAUGU
B24	0.0217 KA relative to UGCAUGU
B25	0.0253 KA relative to UGCAUGU
B26	0.0121 KA relative to UGCAUGU
B27	0.011 KA relative to UGCAUGU
B28	0.00787 KA relative to UGCAUGU
B29	0.00496 KA relative to UGCAUGU
B30	0.00753 KA relative to UGCAUGU
B31	0.0237 KA relative to UGCAUGU
